Some of the results follow. At the low end of the ranking, values are background and their order means little.

The target of the test is GST-SBP-SLBP (stem-loop binding protein) (UniProt Q14493). Nature of the test: targeted RNA Bind-n-Seq.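 Note: DESeq read counts versus GST-SBP nonspecific binding control pulldown.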 The settings on record: RBNS binding buffer: 25 mM Tris pH 7.5, 150 mM KCl, 3 mM MgCl2, 0.1% Tween, 0.5 mg/mL BSA, 1 mM DTT; 27 nM protein, 750 pM RNA pool; temperature not stated; high values mean tight binding.
As to “GGUCACGUCUCAAUCAACUCUACAGAGGGGGGGAAAACCCCUUUACCCUCCAAAUCAACAGCUCGCAGUCAAG”, the binding signal (log2 fold change) was 0.212.
On to “GGUCACGUCUCAAUCAACUCAUCUCCCAGGGAAAACCCUGGUAAUUUCAACAGCUCGCAGUCAAG”, for which the binding signal (log2 fold change) was 0.00763.
For “GGUCACGUCUCAAUCAACUCUAUCUCAGGAGUUUGCUCCUGCAUAUUCAACAGCUCGCAGUCAAG” the value was -0.0199; for “GGUCACGUCUCAAUCAACUCAUUUCCAGGAGUUUUCUCCUGCUUAUUCAACAGCUCGCAGUCAAG”, -0.161.
The result for “GGUCACGUCUCAAUCAACUCAUCGUCCAGGGAAAUCCCUGGUUAUUUCAACAGCUCGCAGUCAAG” reads 0.205; that for “GGUCACGUCUCAAUCAACUCAUCGUCCAGGGAAAACCCUGGCAAAUUCAACAGCUCGCAGUCAAG”, -0.235.
As to “GGUCACGUCUCAAUCAACUCAACUUCAGGAGUUUUCUCCUGCUAUCUCAACAGCUCGCAGUCAAG”, the binding signal (log2 fold change) is -0.0268.
The result for “GGUCACGUCUCAAUCAACUCUUUCCCAGGAGUUUACUCCUGCAAAUUCAACAGCUCGCAGUCAAG” reads -0.0762; that for “GGUCACGUCUCAAUCAACUCUAUCUCCAGGGAAACCCCUGGCUUAUUCAACAGCUCGCAGUCAAG”, -0.154; that for “GGUCACGUCUCAAUCAACUCCCUAGAGGGGGGGAAAACCCCUUUACCCUCACCAUCAACAGCUCGCAGUCAAG”, 0.197.
For “GGUCACGUCUCAAUCAACUCAACUUCCAGGGAAACCCCUGGUUAUCUCAACAGCUCGCAGUCAAG” the value was -0.153.
Regarding “GGUCACGUCUCAAUCAACUCUUUUUCCAGGGAAACCCCUGGUUAAUUCAACAGCUCGCAGUCAAG”, the binding signal (log2 fold change) was -0.228.
For “GGUCACGUCUCAAUCAACUCCAUAGAGGGGGGGAAAACCCCUUUGCCCUCACACUCAACAGCUCGCAGUCAAG” the value was 0.119.
Consider “GGUCACGUCUCAAUCAACUCAAUUUCAGGAGUUUUCUCCUGUUUUCUCAACAGCUCGCAGUCAAG”, for which the binding signal (log2 fold change) is -0.024.
The result for “GGUCACGUCUCAAUCAACUCUAACGAGGGGGGGAAAACCCCUUUGCCCUCAUUUUCAACAGCUCGCAGUCAAG” reads -0.243; that for “GGUCACGUCUCAAUCAACUCAUCCCCCAGGGAAACCCCUGGUAAUUUCAACAGCUCGCAGUCAAG”, -0.0379; that for “GGUCACGUCUCAAUCAACUCUCAGGAGGGGGGGAAAACCCCUUUACCCUCAUCGUCAACAGCUCGCAGUCAAG”, 0.309.
Turning to “GGUCACGUCUCAAUCAACUCAGUUUCAGGAGUUUACUCCUGCAUAUUCAACAGCUCGCAGUCAAG”, the binding signal (log2 fold change) is 0.164.
For “GGUCACGUCUCAAUCAACUCAAUCUCCAGGGAAAUCCCUGGUAUACUCAACAGCUCGCAGUCAAG” the value was -0.0721; for “GGUCACGUCUCAAUCAACUCAUCAGAGGGGGGGAAAACCCCUUUACCCUCACUUUCAACAGCUCGCAGUCAAG”, 0.131; for “GGUCACGUCUCAAUCAACUCAUUUCCAGGAGUUUCCUCCUGCUAACUCAACAGCUCGCAGUCAAG”, 0.118.
For “GGUCACGUCUCAAUCAACUCUACUCCAGGAGUUUCCUCCUGCUAUUUCAACAGCUCGCAGUCAAG” the value was 0.00662.
The result for “GGUCACGUCUCAAUCAACUCAUCCCCCAGGGAAAUCCCUGGUAAACUCAACAGCUCGCAGUCAAG” reads 0.154.
As to “GGUCACGUCUCAAUCAACUCAAUUCCAGGAGUUUCCUCCUGUAAAUUCAACAGCUCGCAGUCAAG”, the binding signal (log2 fold change) was -0.0267.
“GGUCACGUCUCAAUCAACUCUAUUUCAGGAGUUUACUCCUGCAUACUCAACAGCUCGCAGUCAAG”: the binding signal (log2 fold change) stood at 0.0211.
For “GGUCACGUCUCAAUCAACUCACACGAGGGGGGGAAAACCCCUUUGCCCUCAAAUUCAACAGCUCGCAGUCAAG” the value was -0.15; for “GGUCACGUCUCAAUCAACUCAUUUUCAGGAGUUUUCUCCUGCAUAGUCAACAGCUCGCAGUCAAG”, 0.114.
On to “GGUCACGUCUCAAUCAACUCUACUCCAGGAGUUUCCUCCUGCUUAUUCAACAGCUCGCAGUCAAG”, for which the binding signal (log2 fold change) came to 0.197.
For “GGUCACGUCUCAAUCAACUCAUUUCCAGGAGUUUCCUCCUGUUUAGUCAACAGCUCGCAGUCAAG”, the binding signal (log2 fold change) is 0.219.
The result for “GGUCACGUCUCAAUCAACUCAUCCCCCAGGGAAAUCCCUGGUAAUCUCAACAGCUCGCAGUCAAG” reads 0.0778; that for “GGUCACGUCUCAAUCAACUCUUACGAGGGGGGGAAAACCCCUUUACCCUCAAUCUCAACAGCUCGCAGUCAAG”, -0.103; that for “GGUCACGUCUCAAUCAACUCUAUCUCAGGAGUUUACUCCUGCAAACUCAACAGCUCGCAGUCAAG”, 0.174.
The result for “GGUCACGUCUCAAUCAACUCUUCUCCAGGAGUUUCCUCCUGUUUUUUCAACAGCUCGCAGUCAAG” reads -0.0191; that for “GGUCACGUCUCAAUCAACUCUCAGGAGGGGGGGAAAACCCCUUUACCCUCAACAUCAACAGCUCGCAGUCAAG”, 0.277.
For “GGUCACGUCUCAAUCAACUCACUAGAGGGGGGGAAAACCCCUUUACCCUCCAUCUCAACAGCUCGCAGUCAAG” the value was 0.0387; for “GGUCACGUCUCAAUCAACUCAGUUUCCAGGGAAAUCCCUGGCAUUUUCAACAGCUCGCAGUCAAG”, 0.263; for “GGUCACGUCUCAAUCAACUCAUCCCCAGGAGUUUCCUCCUGCAUUCUCAACAGCUCGCAGUCAAG”, 0.291.
Turning to “GGUCACGUCUCAAUCAACUCCAUAGAGGGGGGGAAAACCCCUUUGCCCUCAAUCUCAACAGCUCGCAGUCAAG”, the binding signal (log2 fold change) is -0.0126.
Regarding “GGUCACGUCUCAAUCAACUCACUCGAGGGGGGGAAAACCCCUUUACCCUCAACAUCAACAGCUCGCAGUCAAG”, the binding signal (log2 fold change) was -0.167.
The result for “GGUCACGUCUCAAUCAACUCAUCCCCCAGGGAAACCCCUGGCAUUCUCAACAGCUCGCAGUCAAG” reads -0.0449; that for “GGUCACGUCUCAAUCAACUCAUCUCCAGGAGUUUACUCCUGCAAUCUCAACAGCUCGCAGUCAAG”, 0.127; that for “GGUCACGUCUCAAUCAACUCAUCCUCAGGAGUUUUCUCCUGUUAAUUCAACAGCUCGCAGUCAAG”, 0.0626.
For “GGUCACGUCUCAAUCAACUCAACUUCCAGGGAAACCCCUGGCAAAUUCAACAGCUCGCAGUCAAG” the value was -0.114; for “GGUCACGUCUCAAUCAACUCCCAAGAGGGGGGGAAAACCCCUUUACCCUCCUACUCAACAGCUCGCAGUCAAG”, 0.169; for “GGUCACGUCUCAAUCAACUCAACGCCAGGAGUUUUCUCCUGUAUACUCAACAGCUCGCAGUCAAG”, 0.147.
The result for “GGUCACGUCUCAAUCAACUCUAUCUCCAGGGAAAGCCCUGGUUUUUUCAACAGCUCGCAGUCAAG” reads -0.169; that for “GGUCACGUCUCAAUCAACUCAUCGUCCAGGGAAAUCCCUGGCUUAUUCAACAGCUCGCAGUCAAG”, -0.00186; that for “GGUCACGUCUCAAUCAACUCAUUCGAGGGGGGGAAAACCCCUUUGCCCUCACUAUCAACAGCUCGCAGUCAAG”, -0.0184.
Regarding “GGUCACGUCUCAAUCAACUCUAUCUCCAGGGAAAACCCUGGCUUAUUCAACAGCUCGCAGUCAAG”, the binding signal (log2 fold change) is -0.0838.
The result for “GGUCACGUCUCAAUCAACUCAUCUUCCAGGGAAACCCCUGGCAAAUUCAACAGCUCGCAGUCAAG” reads 0.215.
Consider “GGUCACGUCUCAAUCAACUCCCUCGAGGGGGGGAAAACCCCUUUACCCUCAAUCUCAACAGCUCGCAGUCAAG”, for which the binding signal (log2 fold change) was -0.42.
The result for “GGUCACGUCUCAAUCAACUCAUCCUCAGGAGUUUACUCCUGCUUACUCAACAGCUCGCAGUCAAG” reads 0.315; that for “GGUCACGUCUCAAUCAACUCAUACGAGGGGGGGAAAACCCCUUUACCCUCCACAUCAACAGCUCGCAGUCAAG”, -0.191; that for “GGUCACGUCUCAAUCAACUCUAGUCCCAGGGAAAGCCCUGGCAUAUUCAACAGCUCGCAGUCAAG”, -0.244.
For the sequence “GGUCACGUCUCAAUCAACUCAUCGCCCAGGGAAAUCCCUGGUAAUCUCAACAGCUCGCAGUCAAG”, the binding signal (log2 fold change) was -0.438.
The result for “GGUCACGUCUCAAUCAACUCAGUCCCCAGGGAAAGCCCUGGUUUUUUCAACAGCUCGCAGUCAAG” reads 0.1.
The result for “GGUCACGUCUCAAUCAACUCAAGUCCAGGAGUUUACUCCUGCAAUGUCAACAGCUCGCAGUCAAG” reads -0.0265; that for “GGUCACGUCUCAAUCAACUCUAUCGAGGGGGGGAAAACCCCUUUACCCUCAUCUUCAACAGCUCGCAGUCAAG”, 0.159.
The result for “GGUCACGUCUCAAUCAACUCAUUUUCCAGGGAAAACCCUGGCAUACUCAACAGCUCGCAGUCAAG” reads 0.135; that for “GGUCACGUCUCAAUCAACUCUAUCCCCAGGGAAAACCCUGGCAUACUCAACAGCUCGCAGUCAAG”, -0.182; that for “GGUCACGUCUCAAUCAACUCAGUUCCAGGAGUUUACUCCUGCAUUUUCAACAGCUCGCAGUCAAG”, 0.0545.
For “GGUCACGUCUCAAUCAACUCUUCGUCAGGAGUUUUCUCCUGUAAACUCAACAGCUCGCAGUCAAG”, the binding signal (log2 fold change) was -0.0936.
On to “GGUCACGUCUCAAUCAACUCUCUCGAGGGGGGGAAAACCCCUUUACCCUCAAUGUCAACAGCUCGCAGUCAAG”, for which the binding signal (log2 fold change) is -0.0916.
Take “GGUCACGUCUCAAUCAACUCAUCCCCCAGGGAAACCCCUGGCUAAUUCAACAGCUCGCAGUCAAG”: the binding signal (log2 fold change) was -0.159.
With “GGUCACGUCUCAAUCAACUCAACUUCAGGAGUUUUCUCCUGCAAUUUCAACAGCUCGCAGUCAAG”, the binding signal (log2 fold change) was 0.0686.
The result for “GGUCACGUCUCAAUCAACUCAUCUCCCAGGGAAAUCCCUGGCAUUCUCAACAGCUCGCAGUCAAG” reads 0.0996; that for “GGUCACGUCUCAAUCAACUCUACAGAGGGGGGGAAAACCCCUUUACCCUCAACAUCAACAGCUCGCAGUCAAG”, 0.238; that for “GGUCACGUCUCAAUCAACUCAUCCCCAGGAGUUUACUCCUGUAUACUCAACAGCUCGCAGUCAAG”, 0.0474.
For “GGUCACGUCUCAAUCAACUCAAUCCCAGGAGUUUUCUCCUGUAAAGUCAACAGCUCGCAGUCAAG” the value was 0.317; for “GGUCACGUCUCAAUCAACUCCCUCGAGGGGGGGAAAACCCCUUUACCCUCAUACUCAACAGCUCGCAGUCAAG”, -0.197.
As for “GGUCACGUCUCAAUCAACUCUUUCCCAGGAGUUUUCUCCUGUUUUGUCAACAGCUCGCAGUCAAG”, the binding signal (log2 fold change) was determined as 0.0854.
For “GGUCACGUCUCAAUCAACUCUACUCCCAGGGAAAUCCCUGGCUAUUUCAACAGCUCGCAGUCAAG” the value was -0.355.
The result for “GGUCACGUCUCAAUCAACUCAUCCCCAGGAGUUUGCUCCUGCAUUUUCAACAGCUCGCAGUCAAG” reads 0.206; that for “GGUCACGUCUCAAUCAACUCUUCUCCCAGGGAAAGCCCUGGUAAUGUCAACAGCUCGCAGUCAAG”, 0.107.

These data come from paper PMC5892938.
